Test results: PubChem BioAssay AID1346428 (National Center for Advancing Translational Sciences (NCATS), 2018)
Among all 48,000 compounds or so, about 1,200 (2.5%) were called active. Another 2% or so got no clear call; they are omitted.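 The calls were made as follows: active = activation of at least 60% and not above a set upper limit (about 1 call in 100 departs from these limits); inconclusive = activation of 40% to 60%, or above that upper limit; inactive = activation under 40%.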 This is one part of the list.

What follows are compounds tested against Probable G-protein coupled receptor 32 (Homo sapiens) (UniProt O75388) (assay: qHTS for Agonists of Human Resolvin D1 Receptor DRV1). Details: CHO-K1 GPR32 beta-arrestin PathHunter luminescence, 90 min; at 76.9 µM; hits give high values; zero percent set by DMSO-only wells.
Chain of UniProt O75388 (O75388 whole entry, looked up): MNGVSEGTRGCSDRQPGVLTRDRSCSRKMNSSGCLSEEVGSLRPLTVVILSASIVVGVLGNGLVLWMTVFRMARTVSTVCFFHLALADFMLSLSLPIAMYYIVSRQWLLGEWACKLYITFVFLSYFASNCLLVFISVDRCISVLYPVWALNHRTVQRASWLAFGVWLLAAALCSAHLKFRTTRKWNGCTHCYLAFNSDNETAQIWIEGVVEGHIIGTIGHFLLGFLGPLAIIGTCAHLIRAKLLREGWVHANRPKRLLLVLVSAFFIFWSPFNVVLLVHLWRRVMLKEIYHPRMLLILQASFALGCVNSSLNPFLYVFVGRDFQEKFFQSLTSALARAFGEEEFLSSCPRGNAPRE
Procedure, shortened: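 Engineered CHO-K1 line co-expressing GPR32-ProLink and EA-beta-arrestin. Compound treatment lasted 90 min at 37 °C. Luminescence was recorded after 1 h with substrate at ambient temperature, relative to DMSO basal wells.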
Also: 0% is about no effect.

activation, inactive:
O=C(Nc1cccnc1Cl)c1cc(-c2cccc(Cl)c2)on1 -4.03%
CCOc1ccc(CCNC(=O)CCc2cn(Cc3ccc(F)cc3)c3ccccc23)cc1 -32.5%
COc1ccc(-c2nc(C)c(CCNC(=O)C(=O)Nc3ccccc3OC)s2)cc1 46.6%
COc1ccc(CCn2cc3c(c2-c2ccc(Br)cc2)c(=O)n(C)c(=O)n3C)cc1OC -43.1%
Cc1ccc(C(C)C)c(OCC(=O)NCC2(N(C)C)CCCCC2)c1 10.8%
Cc1ccccc1C(=O)n1nc(-c2ccco2)nc1NCc1ccc(Cl)cc1 7.84%
Cc1ccccc1N1CC(c2nc3ccccc3n2CCC2CCCCC2)CC1=O (centres undefined) -24.4%
COc1ccc(CNC(=O)CCn2cccn2)cc1 22%
Cc1ccc(C)c(N2CCN(C(=O)C3CCCN(S(=O)(=O)c4ccc5c(c4)oc(=O)n5C)C3)CC2)c1 (centres undefined) 18.5%
CCOc1cc(OCC)c(C(=O)CCC(=O)O)cc1OCC 40.6%
O=C(COc1ccc(Cl)cc1)Nc1ccc(-c2nc3ccccc3s2)c(O)c1 -6.3%
Cc1ccc(-c2nnc(SCc3ccccc3C)o2)cc1 10.1%
CCc1ccccc1NC(=O)c1c(NC(=O)c2ccccc2)sc2c1CCCC2 -0.352%
CCc1ccc(C(=O)c2cn(CC(=O)Nc3ccc4c(c3)OCO4)c3cc(OC)c(OC)cc3c2=O)cc1 39.7%
CCOC(=O)C1CCC(CN(Cc2cccc(Br)c2)S(=O)(=O)c2ccc(C)cc2)CC1 (centres undefined) -7.22%
COc1ccc(S(=O)(=O)Nc2ccc3c(c2)N(C(C)=O)CCC3)cc1F -5.67%
COc1cc(Cl)c(NC(=O)CCS(=O)(=O)c2cc3c(cc2Cl)NC(=O)CO3)c(OC)c1 39.3%
COc1cc(-c2cc(OC)c3c(C)oc(C)c3c(=O)c2)ccc1OC(=O)c1ccccc1Cl -23.3%
COc1ccc(OC)c2sc(N3CCN(C(=O)C(C)(C)C)CC3)nc12 9.03%
CCOC(=O)C1=C(CN2CCC(C)CC2)NC(=O)NC1c1ccc(F)cc1 (centres undefined) -6.71%
Cc1cccc(Oc2nc3c(C)cccn3c(=O)c2/C=C(\C#N)c2nc3ccccc3[nH]2)c1 21.1%
Cc1ccc2nc(N3CCN(c4cccc(Cl)c4)CC3)c(-n3nc(C)cc3C)nc2c1 -19.6%
Cc1ccc(-c2cc3ncc4c(n3n2)-c2cc(C)ccc2OC4)cc1 -7.43%
Cc1cc(C)c2c(=O)cc(CSCC(=O)Nc3ccccc3Cl)[nH]c2c1 31.9%
COc1ccc(CNC(=O)c2ccc(N3CCCC3)c(NC(=O)NCc3ccc(F)cc3)c2)cc1 -17%
COCCCNC(=O)c1ccc(NC(=O)c2nsc3ccccc23)cc1 -7.56%
COc1ccccc1CNC(=O)C1CCC(CNS(=O)(=O)c2ccc3c(c2)CCCC(=O)N3)CC1 (centres undefined) -15.2%
Cc1ccc(N2C(=O)CSC23C(=O)N(CC(=O)NCc2ccccc2)c2ccccc23)cc1C (centres undefined) -18.6%
Cc1cccc(C)c1OCC(=O)NCC1(N(C)C)CCCCC1 -14.8%
CNC(=O)c1c(NC(=O)c2ccc(S(=O)(=O)N3CCC(C)CC3)cc2)sc2c1CCC2 -18.5%
CS(=O)(=O)c1ccc(-c2nnc(NC(=O)c3ccc4c(c3)OCCO4)o2)cc1 -39.2%
COc1ccc(CNS(=O)(=O)c2cnc(N)nc2)c(OC)c1 -3.26%
CCN(CC)CCNC(=O)c1ccc(Cn2c(SCc3ccccc3)nc3cccnc32)cc1 -4.5%
Cc1ccc2c(Sc3ccc(Cl)cc3)c(C(=O)N3CCC(C)CC3)[nH]c2c1 -30.7%
CCC1CN(C(=O)N2CCC(C(=O)NCCN(CC)CC)CC2)c2cc(C)ccc2O1 (centres undefined) -18.2%
CC(=O)c1ccc(NC(=O)Cn2cc(S(=O)(=O)Cc3cccc(Cl)c3)c3ccccc32)cc1 -10.9%
CCOc1cc(CNC(=O)c2sc3ncnc(N(C)C4CCCCC4)c3c2C)ccc1OC -8.54%
O=C(CCc1nc(-c2cccs2)no1)Nc1cccc([N+](=O)[O-])c1 19.6%
COc1ccc(CCCc2nnc(SCC(=O)Nc3ccc(C)cc3)o2)cc1 35.6%
CCOc1ccc(-c2ccc(NS(=O)(=O)c3ccc(C)cc3)cc2)nn1 5.15%
Cc1cccn2c(=O)c(/C=C(\C#N)c3nc4ccccc4[nH]3)c(Oc3ccc(C(C)(C)C)cc3)nc12 10.9%
Cc1ccc(C)c(N2CCN(C(c3ccccc3)c3nnc(-c4ccccc4F)o3)CC2)c1 (centres undefined) -27.7%
Cc1ccc(C(=O)Nc2sc3c(c2C(=O)NCc2ccco2)CCC(C(C)(C)C)C3)cc1 (centres undefined) 6.57%
O=C(NCc1ccc(F)cc1)c1cc2n(n1)CCCN(Cc1ccc(F)cc1)C2=O 30.8%
Cc1ccc(OCC(=O)OCc2cc(=O)n3nc(-c4cccs4)sc3n2)cc1C 25.9%
Cc1cc(C)c(NC(=O)Cn2c(=O)n(-c3ccc(CC(=O)NCC4CCCO4)cc3)c(=O)c3ccccc32)c(C)c1 (centres undefined) -4.4%
Cc1ccc(-c2nc3n(n2)C(=O)CC(c2ccc(Cl)cc2)S3)cc1 (centres undefined) 40.5%
Cc1cc(Cl)ccc1NC(=O)C(=O)NCc1ccco1 22.8%
Cc1ccc(C(=O)Nc2ccc(NC(=O)c3cccs3)cc2)cc1C -13.9%
Cc1ccsc1CN(C(=O)COc1ccc(Br)cc1)C1CCS(=O)(=O)C1 (centres undefined) -20.4%
Cc1ccc(OCC(=O)Nc2cc3nn(-c4ccccc4)nc3cc2C)cc1 1.31%
CCOc1ccc(Sc2cc(C(=O)NC(C)c3ccccc3)c3ccccc3n2)cc1 (centres undefined) -16%
O=C(Cn1c(=O)c2cccn2c2ccccc21)NCCc1ccccc1 -14.7%
CCOc1ccccc1NC(=O)Cn1cc(C(=O)c2cccc(OC)c2)c(=O)c2ccc(C)nc21 1.15%
